The other results are listed elsewhere or left out.

The assay relates to PF3D7_0420300 AP2 domain 1 (GST-tagged). Put plainly: gcPBM binding intensity (ln(normalized median fluorescence intensity)); higher = stronger DNA binding. In outline:
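An Agilent 4 × 180k array carrying primer-extended double-stranded 36-bp intergenic genomic probes and negative controls received GST-tagged P. falciparum DNA-binding domains expressed in E. coli, about 25 μg on average, for 1 h. The binding buffer contained 1× PBS, 1% milk, 0.2 mg/ml BSA, 0.5% salmon testes DNA and 0.03% Triton X-100. Binding intensity is the top Masliner-normalised natural-log median intensity across replicate spots of either probe orientation, read after Alexa488 anti-GST antibody staining and a 488 nm scan.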
“GTTAAGTGGATATATACACACATATGCAATACATGA [CACACA_site7427]”: the “gcPBM binding intensity (ln)” value was determined as 9.5.

On to “CAATTCAATATATATACACACACACTATTAATAATT [CACACA_site9256]”, for which the “gcPBM binding intensity (ln)” value was determined as 9.98. With ATGGTTATATTTGAAGTGCAAAAAAAAATATATGTA the figure was 9.24; with “TATACTACCCAGAGCTGTACAAAATAATAATAAGTT [XGTACX_site1045]”, 9.3. With “ATGTGGATTTTATAATGTACATATGATATTATTTTG [XGTACX_site7930]” the figure was 9.28. The result for “ATTCCTTTATTATCACGTACTTATAAAATATAGTAT [XGTACX_site7498]” reads 9.47. On to “TTAAATAAAATAAAAACATGCACACTTTATTTTTTT [TGCATGCA_site719]”, for which the “gcPBM binding intensity (ln)” value was 9.28. With “ATAAACAGATAAAAGGGTACACACATATATACATGT [XGTACX_site452]” the figure was 9.9; with “TTATATATATATTGTTCACACATAATATAAATATTT [CACACA_site5835]”, 9.14.

With “TTTTTCATTTAGCTTTTACACACTATATATTATTGA [CACACA_site7888]”, the “gcPBM binding intensity (ln)” value is 9.5. For the sequence “TTTTAATAAATCATTTTCCTAATATTTATATTTGCT [TGCATGCA_negctrl_site232]”, the “gcPBM binding intensity (ln)” value was found to be 8.96. With TTTCTTTTTTCTTCAGTGCATTAAAATTAACAAAAG the figure was 8.98. With “TTTGTGTTGTATTTTTGTACATAAAATAAACTTAAA [XGTACX_site4637]” the figure was 8.99; with “GAGCCCAAAAAATTAGGTACGTATAAAGAGGTATTT [XGTACX_site5348]”, 9.05. With “AGGAAAATTTTATTTGCACACATTATTACGTCTAAA [CACACA_site2337]” the figure was 9.34; with “CATATATATATTGGAAGTACATATTTAATATTCATT [XGTACX_site3545]”, 9.27; with “TCTTTTTTCATATTTTCACACATGTCTTTATATTTA [CACACA_site6025]”, 9.61. Consider “ACATGTAATATAATGTGTACATATACAAAGGTATAT [XGTACX_site4145]”, for which the “gcPBM binding intensity (ln)” value stood at 9.47. The result for “AGATGAGAAATATATACACACAATAATACCTATTTA [CACACA_site876]” reads 9.8. The result for “ATAAAGTATATTATATGTACATATATATATTATATA [XGTACX_site1345]” reads 9.1; that for “AAAATAAAAAAAATAAATAAAAAAAATAATAATAAA [CACACA_negctrl_site563]”, 9.32. The result for TCATAAATATAAAGTGTGCACTTGAATAATATGTAT reads 9.37. Regarding TAAATAAATCTGTGCTTGCACTTTTTTTGTTATTTT, the “gcPBM binding intensity (ln)” value came to 9.17. With “ATATAAACATATAATAGTACACTTCGATAATTTTAT [XGTACX_site3321]” the figure was 9.35; with “GTACCATCAAAATAAATATATATATATATATATTTT [GTGCAC_negctrl_site646]”, 9.23; with “ATTTAACATATAAAATGTACATATATATATATATTT [XGTACX_site2525]”, 9.25. With “GAATAAATTAAAAATGCACACTTTGATGGGTACATT [CACACA_site5220]” the figure was 9.3; with “ACGTTTTATAATTAATGTACAAATATTAAAATTGCA [XGTACX_site7869]”, 9.07; with “TATGAATGGTTAAGTACACACATATTAAGATATGTA [CACACA_site5852]”, 9.35. Regarding “TTATTTATTTTAAATTCACACATCGTGCTATTATAT [CACACA_site5003]”, the “gcPBM binding intensity (ln)” value amounted to 9.17.

Regarding “TCATATATTTATGTATGTACATATATATATAGATTA [XGTACX_site380]”, the “gcPBM binding intensity (ln)” value amounted to 9.01.

For “TATATTTGCAGTAATAATAATTATTATAAAAGATAA [XGTACX_negctrl_site547]”, the “gcPBM binding intensity (ln)” value came to 9.1.

“TTTTTATAACGTAATAAATAAAACGTCTATACTATA [XGTACX_negctrl_site176]”: the “gcPBM binding intensity (ln)” value is 8.98. As for “AAAAATATAATATAATGTACACAAAAAAAAAAATTC [XGTACX_site3657]”, the “gcPBM binding intensity (ln)” value was 9.48.

In the case of “AATTAGACATAATATACACACATATATTATAGATAT [CACACA_site7297]”, the “gcPBM binding intensity (ln)” value was found to be 9.69. With “TAAAGATATTATTTTTGTACATATTGATATAATGAA [XGTACX_site6571]” the figure was 8.91; with “TATATTATTATAATTTGTACATATCTAATTATATAT [XGTACX_site5342]”, 9.17; with “ATATAACATAGACACACACACATATAAATATATTAT [CACACA_site7865]”, 10. The result for “CTTTATAAAATAAGAGTGCGTTATATTGAATTGTAT [GTGCAC_site9390]” reads 9.18; that for “ATATAAGATTTAAGAAGTACAATTATACAGTAGATC [XGTACX_site7501]”, 9.38; that for “CATATAAAATAATTCACACAAATATACAAATACCCA [CACACA_site5340]”, 9.66. For “AAAAAAAATTTCTTCTGTACGCATAAATTTTTATTA [XGTACX_site8721]”, the “gcPBM binding intensity (ln)” value amounted to 8.94. The result for “TATTTAATTTTTAAATGTACATATAAAATAATATAT [XGTACX_site2422]” reads 8.89; that for “TTTTTCAGAAAAGAAACACACATATATATATTTATA [CACACA_site2372]”, 9.23; that for “AATGATAATATTTCCTTCTTTTTTACTTCTTTCTTT [CACACA_negctrl_site776]”, 9.4. With “AAAATGGTTTATAAATGTACATATATTATATATAAC [XGTACX_site7959]” the figure was 9.28; with “CCTATCCAGACATATACACACATATCTATTTATATA [CACACA_site5001]”, 9.66. For “TATAAAAAATAATACACACACATGGCGACAAAATAA [CACACA_site2420]”, the “gcPBM binding intensity (ln)” value came out at 10.2. The result for “TTTACTTTCCCAAGTTGTACTGCTTCTAAGCTTTTT [XGTACX_site2708]” reads 9.21.

In the case of “GATAAATTAAAACACACACACATATATATATATATA [CACACA_site3962]”, the “gcPBM binding intensity (ln)” value was determined as 9.67. With AAAAAAATAGTCTTCTTGCACTTTTTAATTTATTTT the figure was 9.11; with “TTATAATAAAATGAATATATATAATTTAAAATATTT [CACACA_negctrl_site1651]”, 8.95; with “AAAAAAAGTTATATTACACACTTTATTCGTTAACTT [CACACA_site3013]”, 9.47. With “ATATTTATGAAGTTCACACATATATATATATATATA [CACACA_site5954]” the figure was 9.16.

For “ACAACAATATTTGAATGTACTCTATTTTCGTTGTTC [XGTACX_site593]”, the “gcPBM binding intensity (ln)” value was 9.4. For “CTCAAAGGAATATTCACACATAAATTATAGACTACA [CACACA_site6050]”, the “gcPBM binding intensity (ln)” value amounted to 9.23. With “TAATTATATTCACTTGCTATATAAATTATATATATT [CACACA_negctrl_site526]” the figure was 9.34; with “ATACACACTCAAAAAAGTACTTAACTACATGAATTG [XGTACX_site6366]”, 9.39. The result for “AAGAAAAAAATATATGTTTATTTACTTTAATAATTT [TGCATGCA_negctrl_site168]” reads 9.02. The result for “GTATATATATATATATGCAAATGTATAAATCTACAT [CACACA_negctrl_site546]” reads 9.2; that for “TATATATAAATATGCTGTACGTTTTAATACGTTAAG [XGTACX_site2378]”, 8.92. Consider “TTCTGACCAATGCTATAAAATAATACAAAAGAAAAA [GTGCAC_negctrl_site3]”, for which the “gcPBM binding intensity (ln)” value came out at 9.05. For the sequence “TGAAGAGGAAACAAACAAAATGAATAATTAAAAAGG [CACACA_negctrl_site1601]”, the “gcPBM binding intensity (ln)” value was 9.36. Consider “TATATCCACATTTTTAGTACTTAAAAATAAATAAAC [XGTACX_site3826]”, for which the “gcPBM binding intensity (ln)” value worked out at 9.06.

“AAGGAAAACAATAGGTGTACCAAACGTCCTAGGAAC [XGTACX_site5732]”: the “gcPBM binding intensity (ln)” value was determined as 9.69. The result for “TTTCTTCATTTTTTCACACATAAGAAAATATAATCA [CACACA_site4275]” reads 8.91; that for “AAAAAAGCAATATGATGTACATTTACTTTGTGAAAG [XGTACX_site4450]”, 9.27. With “TAAAAAAATAAAATTACACACATATATAAATATATA [CACACA_site2620]” the figure was 9.47.

Regarding “ATATATAAATATATTTGTACATATAATATGTATTAT [XGTACX_site8820]”, the “gcPBM binding intensity (ln)” value came out at 9.21.

Consider “CTAGGTATGCTTTAAACATGCAAAAATACAAATTAC [TGCATGCA_site239]”, for which the “gcPBM binding intensity (ln)” value was found to be 9.26. With AAATATTATAAAAAGGTGCATTTTTATTATATGAGT the figure was 9.23. With “TTTTGTTATAATAAAGTGCATTTAGTCGGGTTACAA [GTGCAC_site9779]”, the “gcPBM binding intensity (ln)” value was 9.09.

Take “ATATATGTTTTTATATGTACTTATAATGTGTGTATA [XGTACX_site5165]”: the “gcPBM binding intensity (ln)” value amounted to 9.71. With “AATTTAAAAAAAATCACACACAGAAAAAAAAAAAAA [CACACA_site2322]” the figure was 9.51; with “ATTTATTAAATTTATAGTACTCAAAGATTTTTATTT [XGTACX_site6661]”, 9.07; with “AAATAAAACAATTAACGTACAAGCATATATATATAT [XGTACX_site8508]”, 9.56. “TATATATATATTATATGTACACAAGGAAATATGCAT [XGTACX_site5637]”: the “gcPBM binding intensity (ln)” value was found to be 9.43. With “TATGTATAATTATTTTGTACTTATTAAATTTTTTTT [XGTACX_site5413]” the figure was 9.18; with “AAATAAAAAAAAATAGCACACATAAATATATTATAT [CACACA_site8155]”, 9.76; with “TTATAATCAATGAATACACACATATATTTCATTAAT [CACACA_site5909]”, 9.32.

As to “TAATAATAGAGACACACACACATAGACATATAAATA [CACACA_site6729]”, the “gcPBM binding intensity (ln)” value came out at 10.2. Turning to “ATCTATGAAAAAGGTACATGCAATAAAGAAACATAT [TGCATGCA_site805]”, the “gcPBM binding intensity (ln)” value amounted to 9.63. The result for “TTATACTATTTTTATACATGCATTTCTATATATTTT [TGCATGCA_site316]” reads 9.61; that for “TTCAAAATAAAAAATTCACACACATATATATATATA [CACACA_site8653]”, 9.33; that for “ATCTAAACAAATAATACACACAATAAAATAGGAAGA [CACACA_site4072]”, 9.74. The result for “TGTGAATAAATAAGCACACATAAACCCATATATAAA [CACACA_site4103]” reads 9.54; that for “TAATATTTACATATTACACACACGTATTATTAAATA [CACACA_site6340]”, 9.55; that for “TATTTTTTAAAAATGGGTACACATAAATAAATAAAT [XGTACX_site7643]”, 9.23. For the sequence “ATTATTCATTTATGTAGTACATTTTAATACATTTAA [XGTACX_site3599]”, the “gcPBM binding intensity (ln)” value stood at 9.26. The result for “AAAAAAAAAAAAGTTACACACAAATAAAATATTTGG [CACACA_site694]” reads 9.47.

For the origin of these results see the supplement of paper PMC11417369.
